Measurements published in PMC6919601, “Identification of Plasmodium dipeptidyl aminopeptidase allosteric inhibitors by high throughput screening” (PLoS ONE, 2019).
Values joined by “and” are separate entries in the source; they are usually repeats but may differ in a detail not shown here. Equal values may be shown once. In all, about 110,000 compounds went through this assay and about 230 (0.21%) showed an effect of 50% or more. This is one part of the list.

target: DPAP1 (Plasmodium falciparum, UniProt Q8IIJ9); experiment: primary screen, percent inhibition; read by cleavage of a fluorogenic dipeptide substrate; higher = more effect of the substance; set-up: species or system P. falciparum D10 trophozoite lysates; single well
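Also: 30 min substrate incubation versus DMSO and 10 µM JCP410 controls.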

DPAP1, sequence (Q8IIJ9 whole entry, looked up): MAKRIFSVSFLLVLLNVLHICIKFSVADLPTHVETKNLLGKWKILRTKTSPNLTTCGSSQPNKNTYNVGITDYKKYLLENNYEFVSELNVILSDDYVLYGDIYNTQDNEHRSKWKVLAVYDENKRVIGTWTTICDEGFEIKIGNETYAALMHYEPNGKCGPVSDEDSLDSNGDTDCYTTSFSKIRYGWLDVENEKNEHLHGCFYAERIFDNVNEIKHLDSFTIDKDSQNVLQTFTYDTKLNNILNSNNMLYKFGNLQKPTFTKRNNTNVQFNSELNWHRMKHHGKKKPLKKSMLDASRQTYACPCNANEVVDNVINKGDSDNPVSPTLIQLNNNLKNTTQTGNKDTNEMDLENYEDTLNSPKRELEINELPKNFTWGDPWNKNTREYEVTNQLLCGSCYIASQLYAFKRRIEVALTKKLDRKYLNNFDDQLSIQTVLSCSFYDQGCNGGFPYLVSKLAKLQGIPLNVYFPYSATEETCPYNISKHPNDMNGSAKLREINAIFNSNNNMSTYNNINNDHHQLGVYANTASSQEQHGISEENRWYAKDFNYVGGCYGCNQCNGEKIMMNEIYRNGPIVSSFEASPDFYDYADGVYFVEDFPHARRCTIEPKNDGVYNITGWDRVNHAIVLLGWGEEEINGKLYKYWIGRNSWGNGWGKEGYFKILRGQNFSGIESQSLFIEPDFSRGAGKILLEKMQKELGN

| Compound | % Inhibition @ 10 uM |
| --- | --- |
| O=C(O)CCC(=O)Nc1ccccc1C(=O)NCc1ccccc1 | -6.57% |
| CC(C)c1ccc(NC(=O)CN(Cc2ccccc2)S(=O)(=O)c2ccc3c(c2)OCCO3)cc1 | 0.52% |
| O=C(CSC(c1ccccc1)c1ccccc1)N1CCOCC1 | -4.48% |
| CCc1nc2cc(Oc3ccc4[nH]c(CC)nc4c3)ccc2[nH]1 | 1.19% |
| CCc1nn(CC(=O)NCc2cccs2)c(=O)c2cc3occc3n12 | -3.79% |
| Cc1c(OCC(=O)O)ccc2c1oc(=O)c1ccccc12 | 4.66% |
| O=C(O)[C@@H]1CSC(c2cccnc2)N1 (some centres unmarked) | -9.13% |
| CCCCN(Cc1ccccc1)C(=O)C1CCN(S(=O)(=O)c2c(C)n[nH]c2C)CC1 | -2.7% |
| COCCOC(=O)c1c(C)n(-c2ccc(F)cc2)c2c1cc(O)c1ccccc12 | 2.62% |
| CC1=C(C#N)C(c2ccc(F)cc2)C2=C(O)CC(c3ccccc3)CC2=N1 (centres unmarked) | -11.9% |
| CCOC(=O)C1=C2N(C)c3ccccc3N2CCC1=O | -0.424% |
| Cc1cc(N2CCC(C)CC2)n2nnnc2n1 | 2.55% |
| C(=C\c1ccccc1)/CN1CCN(C2CCCCCC2)CC1 | -3.6% |
| CCOC(=O)N1CCN(C(=O)C2CC(c3ccccc3F)=NO2)CC1 (centres unmarked) | 1.24% |
| O=C(CN(C1CCCCC1)S(=O)(=O)c1ccc(F)cc1)N1CCN(c2ccccc2F)CC1 | 3.72% |
| COc1cc2ccccc2cc1C(=O)Nc1ccccc1C | -4.23% |
| CCOc1ccc(Oc2nc(NCC(C)C)nc(OC)n2)nn1 | -0.958% |
| CCCNC(=O)CS(=O)(=O)Cc1nc(-c2ccccc2C)oc1C | -1.89% |
| COc1cc(C(=O)Nc2nc3c(s2)C(=O)CC(C)(C)C3)cc(OC)c1OC | 0.565% |
| C=CCn1c(SCC(=O)Nc2cc(C)on2)nc2sc(-c3ccccc3)cc2c1=O | -3.46% |
| O=C(O)c1cc(-c2ccc(O)c(O)c2)nc2[nH]nc(-c3ccc(F)cc3)c12 | 2.33% |

| Compound | % Inhibition @ 10 uM |
| --- | --- |
| CCO/C(O)=C1/C(C)=Nc2nc3ccccc3n2C1c1ccc(SC)cc1 (centres unmarked) | 3.32% |
| CCOc1ccc(CN2C(=O)CCC2(C)C(=O)NC2CCCC(C)C2C)cc1OC (centres unmarked) | 0.387% |
| Cc1oc2ccc(O)c(CN3CC4(C)CC3CC(C)(C)C4)c2c1C(=O)NC1CCCC1 (centres unmarked) | 2.14% |
| COc1ccc(S(=O)(=O)N2CCC(NC(=O)NCc3cccnc3)CC2)cc1 | 5.43% |
| N#C/C(=C\c1cccn1-c1nnc(-c2ccccc2)s1)C(=O)NCc1ccco1 | 1.9% |
| C=CCO/C(O)=C1/C(C)=Nc2ncnn2C1c1ccccc1C (centres unmarked) | 0.0842% |
| COc1ccc(CCC(=O)Nc2noc3ccccc23)cc1 | 5.29% |
| Cc1cc(CNC(=O)c2nc(-c3cccs3)no2)c2ccccc2n1 | 4.41% |
| CCC1CCC(C(=O)NC(C(=O)NCCCN2CCCCC2C)C(C)C)CC1 (centres unmarked) | -6.5% |
| COc1ccc(/C=C2\CCCC3=C2Nc2ncnn2C3c2ccc(OC)cc2)cc1 (centres unmarked) | 6.96% and 10.4% |
| COc1ccccc1-c1nc2c(c(SC)n1)Cc1c(CO)cnc(C)c1O2 | 2.75% |
| CSc1nnc(Nc2ccccc2)n1-c1ccccc1 | 2.66% |
| O=C(N1CCCCC1)C1(c2ccccc2)CCOCC1 | 0.214% |
| Cc1cccc(NC(=O)C2CCCN(S(=O)(=O)c3ccc4nc(O)ccc4c3)C2)n1 (centres unmarked) | -1.39% |
| O=C(C1CCC(=O)N1Cc1ccccc1Cl)N1CCC2(CC1)OCCO2 (centres unmarked) | -3.58% |
| CCCN1CCN(c2c(-c3ccccc3)c(=O)c2=O)CC1 | -0.825% |
| COC(=O)c1ccc(-c2nc(-c3cc(Cl)ccc3OC)no2)cc1 | 4.18% |
| CC1(C)CC2=Nc3nc(C(F)(F)F)nn3C(c3ccccc3)C2=C(O)C1 (centres unmarked) | 4.08% |
| CC(=O)NCCNc1nc2c(-c3ccccc3)nnn2c2ccccc12 | -1.21% |
| Cc1cccc(C(=O)N(CCN(C)C)c2nc3c(Cl)cccc3s2)c1 | -0.613% |
| COc1ccc(CN(C(=O)c2ccco2)C2CCS(=O)(=O)C2)cc1 (centres unmarked) | -5.26% |

| Compound | % Inhibition @ 10 uM |
| --- | --- |
| CCOc1ccc(C(=O)Nc2ccccc2CC)cc1 | 3.82% |
| CC(=O)N(C)c1ccc(NC(=O)CCCOc2ccc(Cl)cc2Cl)cc1 | -4.01% |
| Cc1nc2c(=O)n(-c3ccccc3)c(=O)n(-c3ccccc3)c2n(C)c1=O | 2.84% |
| CCNC(=O)NC1c2ccccc2CSc2ccccc21 (centres unmarked) | 3.91% |
| CC(C)c1ccc(C2C(C#N)=C(N)Oc3c2ccc2ccccc32)cc1 (centres unmarked) | -2% |
| CCN1CCc2c(sc(NC(=O)Nc3ccc(Cl)c(Cl)c3)c2C(N)=O)C1 | 2.65% |
| CCOC(=O)c1c(N)n(-c2cc(Cl)cc(Cl)c2)c2nc3ccccc3nc12 | -7.23% |
| O=C(Nc1nccs1)c1cccc2c1-c1ccccc1C2=O | 2.16% |
| Cn1cc(C(=O)N2CCN(C3CCCCC3)CC2)c2c3ccccc3n(C)c2c1=O | 2.01% |
| CN1C(=O)c2ccccc2C(C(=O)NCCC2=CCCCC2)C1c1cn(C)c2ccccc12 (centres unmarked) | -2.56% |
| CCCc1[nH]nc2c1C(c1c(Cl)cccc1Cl)C(C#N)=C(N)O2 (centres unmarked) | -0.818% |
| CCS(=O)(=O)C1=NSC2=NC(=O)/C(=C\c3c(C)[nH]c4ccccc34)C(=N)N21 | 3.48% |
| CC1=NN(C(=O)CCc2ccccc2)C(O)(c2cccnc2)C1 (centres unmarked) | 3.8% |
| CCN1C(=O)N/C(=C/c2cc(C)n(-c3ccncc3)c2C)C1=O | -1.43% |
| Cc1cc(C(F)(F)Cl)n2nc(C)c(-c3ccccc3)c2n1 | 9.17% |
| CC(NC(=O)C1C2CCC(C2)C1C(=O)O)C1CCCO1 (centres unmarked) | -1.79% |
| Cc1nn(Cc2ccc(C(=O)Nc3nc4c(C)cccc4s3)o2)c(C)c1Br | 2.1% |
| COc1ccc(C2C(C(=O)/C=C/c3ccccc3)=C(O)C(=O)N2CCCCCC(=O)O)c(OC)c1 (centres unmarked) | -3.75% |
| Cc1ccc(NC(=O)c2ccc(C)c(S(=O)(=O)Nc3ccccn3)c2)cc1 | -0.0217% |
| Cc1cc(C)c(S(=O)(=O)Nc2ccc(O)c(C(=O)O)c2)c(C)c1 | -1.64% |
